The record followed here is patent US20260209325A1, “SELECTIVE AND POTENT INHIBITORY ANTIBODIES OF MYOSTATIN ACTIVATION” (SCHOLAR ROCK, INC., priority 2022, published 2026).

The nature of this series: AC-SINS self-interaction (aggregation behavior). Type of series: physicochemical. The note with it: cutoff: shift of >5 nm in plasmon wavelength. As to the method: Developability profiles may be assessed by well-known parameters. […] In some embodiments, antibodies are tested for aggregation behavior by affinity capture self-interaction nanoparticle spectroscopy (AC-SINS). […] Typically, gold nanoparticles are coated with polyclonal antibodies that are specific for human monoclonal antibodies and the monoclonal antibodies are captured by the conjugates. The polyvalency of the monoclonal antibody conjugates amplifies the attractive self-interactions, i.e., aggregation between the adsorbed antibodies. This leads to reduced inter-particle separation distances and is detected by a change in color of the gold colloid solution, which may be quantified by a change in the wavelength of maximum absorbance (plasmon wavelength). Plasmon wavelength of 530 nm may be used as the reported value for unaggregated gold nanoparticles. Antibodies with a tendency to self-aggregate shift the plasmon wavelength toward the red end of the spectrum. In some embodiments, a shift of greater than 5 nm (i.e., >5 nm) in plasmon wavelength may be used as the cutoff indicative of self-interacting antibodies.
The antibodies were tested for aggregation behavior by affinity capture self-interaction nanoparticle spectroscopy (AC-SINS). Gold nanoparticles were coated with polyclonal antibodies that are specific for human monoclonal antibodies and the monoclonal antibodies are captured by the conjugates. The polyvalency of the monoclonal antibody conjugates amplifies the attractive self-interactions, i.e., aggregation between the adsorbed antibodies. This leads to reduced inter-particle separation distances and is detected by a change in color of the gold colloid solution, which was quantified by a change in the wavelength of maximum absorbance (plasmon wavelength). Plasmon wavelength of 530 nm was used as the reported value for unaggregated gold nanoparticles. Antibodies with a tendency to self-aggregate shift the plasmon wavelength toward the red end of the spectrum. A shift of greater than 5 nm (i.e., >5 nm) in plasmon wavelength was used as the cutoff indicative of self-interacting antibodies.

B1: Ab113: anti-pro/latent myostatin antibody; CDR sequences in Table 2d (protein)
heavy chain: QVQLVQSGAEVKKPGASVKVSCKVSGYLLTELSIHWVRQAPGKGLEWMGGIIPSFGTAIYAQKFQGRVTMTEDTSTDTAYMELSSLKSEDTAVYYCAISYSGFDLLPLDKWGQGTLVTVSSASTKGPSVFPLAPCSRSTSESTAALGCLVKDYFPEPVTVSWNSGALTSGVHTFPAVLQSSGLYSLSSVVTVPSSSLGTKTYTCNVDHKPSNTKVDKRV[human IgG4 Fc with S228P (EU numbers) left out]
light chain: DIQMTQSPSSVSASVGDRVTITCRASQHISTWLAWYQQKPGKAPKLLIYYASSLQGGVPSRFSGSGSGTDFTLTISSLQPEDFANYYCLQTYTYPRTFGGGTKVEIKRTVAAPSVFIFPPSDEQLKSGTASVVCLLNNFYPREAKVQWKVDNALQSGNSQESVTEQDSKDSTYSLSSTLTLSKADYEKHKVYACEVTHQGLSSPVTKSFNRGEC
Regarding B1, the “aggregation behavior by AC-SINS” value is “displayed aggregation behavior”.

B2: Ab111: anti-pro/latent myostatin antibody; CDR sequences in Table 2d (antibody)
heavy: QVQLVQSGAEVKKPGASVKVSCKVSGYTFTSNDIHWVRQAPGKGLEWMGGIFPIFGTTIYAQKFQGRVTMTEDTSTDTAYMELSSLKSEDTAVYYCAREGLGYDFDYWGQGTLVTVSSASTKGPSVFPLAPCSRSTSESTAALGCLVKDYFPEPVTVSWNSGALTSGVHTFPAVLQSSGLYSLSSVVTVPSSSLGTKTYTCNVDHKPSNTKVDKRV[human IgG4 Fc with S228P (EU numbers) left out]
light: DIQMTQSPSSVSASVGDRVTITCRASQNIGNWLAWYQQKPGKAPKLLIYSASALQSGVPSRFSGSGSGTDFTLTISSLQPEDFANYYCQQSYGAPMYSFGGGTKVEIKRTVAAPSVFIFPPSDEQLKSGTASVVCLLNNFYPREAKVQWKVDNALQSGNSQESVTEQDSKDSTYSLSSTLTLSKADYEKHKVYACEVTHQGLSSPVTKSFNRGEC
As for B2, the “aggregation behavior by AC-SINS” value was “displayed aggregation behavior”.

B3: Ab134: anti-pro/latent myostatin antibody; CDR sequences in Table 2d (antibody)
heavy: EVQLVESGGGLVQPGGSLRLSCAASGSAFSSYGMSWVRQAPGKGLELVASINSNGGSTYYPDSVKGRFTISRDNAKNSLYLQMNSLRAEDTAVYYCARDLLVEFLKWSHYYGMDVWGQGTTVTVSSASTKGPSVFPLAPCSRSTSESTAALGCLVKDYFPEPVTVSWNSGALTSGVHTFPAVLQSSGLYSLSSVVTVPSSSLGTKTYTCNVDHKPSNTKVDKRV[human IgG4 Fc with S228P (EU numbers) left out]
light: DIVMTQSPLSLPVTPGEPASISCRSSQSLLHSSGHNFLHWYLQKPGQSPQLLIYEVSNRVSGVPDRFSGSGSGTDFTLKISRVEAEDVGVYYCMQQTQYPPTFGGGTKVEIKRTVAAPSVFIFPPSDEQLKSGTASVVCLLNNFYPREAKVQWKVDNALQSGNSQESVTEQDSKDSTYSLSSTLTLSKADYEKHKVYACEVTHQGLSSPVTKSFNRGEC
With B3, the “aggregation behavior by AC-SINS” value is listed as “did not display aggregation behavior”.
